# Hit rate of the full screen: of about 44,000 compounds, about 340 (0.77%) were called active. About 5% were inconclusive and are not listed. Calls follow the shape of the dose curve; as a rule, active = well fitted inhibition curve with a large enough effect; inconclusive = small, poorly fitted or top-dose-only effect; inactive = flat fitted curve, though single readings scatter. Some of the results follow.
# Assay: Acumen qHTS Assay for Inhibitors of the mTORC1 Signaling Pathway in MEF (Tsc2-/-, p53-/-) Cells: Sytravon;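 also: plate controls were DMSO for no effect and rapamycin for full effect; nearly all actives have a fitted effect of over 50% in size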
# Details: phospho-rpS6 immunofluorescence/PI, 24 h; series mostly up to 38.3 µM; activity change, negative = inhibition: at the top concentration
# In short: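 Plate MEFs (Tsc2-/-, p53-/-, empty vector) in DMEM/10% FBS; after 24 h add compound, incubate 24 h at 37 degree Celsius; fix in PFA/TX-100, block, stain phospho-rpS6 and 10 uM PI; scan at 488 nm; report % positive cells.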
row,Structure (SMILES),"activity change, negative = inhibition"
1,COc1ccc(CNC(=O)Cc2c(C)c3ccc(O)cc3oc2=O)cc1,inactive: -4%
2,CNC(=O)c1c(NC(=O)c2cc(=O)c3ccccc3o2)sc2c1CCC2,inactive: 5.47%
3,COc1ccc(-c2nc3ccccc3s2)cc1NC(=O)c1ccccc1OC,inactive: -10.4%
4,COc1cccc(-c2cc(C(F)(F)F)nc(NCc3ccc(F)cc3)n2)c1,inactive: 7.88%
5,Cn1c(=O)c2sccc2n2c(CCCC(=O)Nc3ccc(F)c(F)c3)nnc12,inactive: -2.2%
6,COc1cccc(-c2nc(S(=O)(=O)c3ccccc3)c(NCc3ccccc3)o2)c1,inactive: -11.6%
7,COc1ccc(CCNC(=O)c2ccc3c(c2)nc2n3CCOC2)cc1OC,inactive: -9.74%
8,Cc1c(C(=O)Nc2ccc(F)cc2F)nnn1-c1ccccc1Br,inactive: -1.07%
9,COc1ccc(C(=O)/C=C/c2cn(CC(O)CN(CC(C)C)CC(C)C)c3ccccc23)cc1OC (stereo unspecified),inactive: -11.8%
10,CC(C)c1ccc(NC(=O)CCS(=O)(=O)c2ccc(Br)s2)cc1,inactive: -15.7%
11,CC1=C(C(=O)Nc2ccccc2)C(c2ccncc2)n2nc(SCc3ccccc3)nc2N1 (stereo unspecified),inactive: -4.86%
12,CCc1nn(CC(=O)NCc2cccc(OC)c2OC)c(=O)c2cc3occc3n12,inactive: -1.02%
13,Cc1ccc(C(=O)COC(=O)C(Cc2c[nH]c3ccccc23)NC(=O)c2ccc(Br)cc2)cc1 (stereo unspecified),inactive: -2.9%
14,Cc1nnc(N2CCC(C(=O)NCc3ccc(N(C)C)cc3)CC2)c2nn(-c3ccccc3)c(C)c12,inactive: 0.518%
15,COc1ccc(NC(=O)C2=C(C)Nc3nc(SC)nn3C2c2cc(OC)ccc2OC)cc1 (stereo unspecified),inactive: 3.15%
16,O=C(NCCCO)C(=O)Nc1c2c(nn1-c1ccc(F)cc1)CSC2,inactive: -2.34%
17,O=C(CSc1nc2ccccc2n1Cc1cccc(Cl)c1)N1CCN(c2ccc(F)cc2)CC1,inactive: -8.63%
18,c1ccc(N2CCN(c3ncnc4c3nc3n4CCCC3)CC2)cc1,inactive: 1.44%
19,O=C(Nc1ccc(Cl)cc1)c1ccc2c(c1)N(Cc1ccccc1)C(=O)c1ccccc1S2(=O)=O,inactive: 2.16%
20,Cc1cc2oc(C(=O)Nc3cccc(-c4nc5ccccc5o4)c3)c(C)c2cc1Cl,inactive: 0%
21,COc1ccc(OC)c(CNC(=O)Cn2nc(C)c3c(C)n(-c4ccccc4)nc3c2=O)c1,inactive: -0.269%

row,Structure (SMILES),"activity change, negative = inhibition"
1,CN(CC(=O)Nc1cccc(C#N)c1)S(=O)(=O)c1cc2c(cc1Cl)NC(=O)CO2,inactive: -2.33%
2,CCOc1ccccc1CNC(=O)CC(C)n1ccc(C)n1 (stereo unspecified),inactive: 1.52%
3,COc1ccc(NC(=O)Cn2c(=O)n(Cc3ccco3)c(=O)c3sc4ccccc4c32)cc1Cl,inactive: -7.53%
4,Cc1ccc(N2CCn3c2nc2c3c(=O)n(Cc3cccc(Cl)c3)c(=O)n2C)cc1C,inactive: 6.41%
5,CC(C)c1ccc(NC(=O)CN2C(=O)C3(SCC(=O)N3c3ccc(F)cc3)c3ccccc32)cc1 (stereo unspecified),inactive: -9.35%
6,O=C(Nc1ccc(Cl)cc1)c1ccc2c(c1)N(Cc1ccccc1)CCS2,inactive: -7.68%
7,CCCC12CN3CC(CCC)(CN(C1)C3c1c[nH]c3ccc(OC)cc13)C2=O (stereo unspecified),inactive: 4.71%
8,CCN(C(=O)CSc1nc2ccccc2nc1Cc1ccccc1OC)c1ccccc1,inactive: 8.24%
9,O=C(CN1C(=O)CCSc2ccc(S(=O)(=O)N3CCCC3)cc21)Nc1ccccc1Cl,inactive: 0.155%
10,CCSC1=NC2(CCN(C(=O)NC3CCCCC3)CC2)N=C1c1ccc(OC)cc1,inactive: -1.6%
11,Cc1nc(CC(=O)Nc2ccc(C(N)=O)cc2)cs1,inactive: -0.177%
12,CC(C(=O)NCc1ccccc1)n1ccc2cc(S(=O)(=O)N3CCCC3)ccc21 (stereo unspecified),inactive: -8.57%
13,Cc1ccc(C(=O)CC2(O)C(=O)N(CCc3ccccc3)c3ccc(Br)cc32)cc1 (stereo unspecified),inactive: -4.49%
14,CC(=O)Nc1ccc(S(=O)(=O)NC2(C(F)(F)F)C(=O)Nc3c2c(=O)[nH]c(=O)n3-c2ccc(C)cc2)cc1 (stereo unspecified),inactive: 0.433%
15,CCc1cccc(NC(=O)CN2C(=O)COc3ccc(S(=O)(=O)N4CCC(C)CC4)cc32)c1,inactive: 3.41%
16,CCOCCCNC(=O)C(c1ccc(OC)cc1)N(Cc1cccs1)C(=O)CNC(C)=O (stereo unspecified),inactive: -7.61%
17,CCOC(=O)c1cc2c(=O)n3ccccc3nc2n(CCCOC)c1=NC(=O)c1cc2ccccc2o1,inactive: 1.42%
18,COc1ccc(NC(=O)Cn2c(=O)n(Cc3ccccc3Cl)c(=O)c3cc(OC)c(OC)cc32)cc1,inactive: 4.81%
19,Cc1ccc(Cn2c(C)c3cnn(CC(=O)N4CCN(c5cc(C)ccc5C)CC4)c(=O)c3c2C)cc1,inactive: -4.65%
20,COc1cccc(-n2c(C)nc3c(cnn3-c3ccc(C)c(C)c3)c2=O)c1,inactive: -4.88%
21,Cc1ccc(CCNC(=O)c2cc3ccccn3n2)cc1,inactive: 2.82%

row,Structure (SMILES),"activity change, negative = inhibition"
1,O=c1oc2ccc(Cl)cc2cc1-c1nc(-c2cccs2)no1,inactive: -0.356%
2,COC(=O)c1c(NC(=O)CS(=O)(=O)c2ccc(C)cc2)sc2c1CCCCC2,inactive: -0.916%
3,CCOc1cc2[nH]c(=O)n(CCC(=O)N3CCN(c4ccccc4)CC3)c(=O)c2cc1OCC,inactive: -6.54%
4,Cc1ccc(-n2nc3c(N4CCCC(C(=O)NCc5ccccc5C)C4)nnc(C)c3c2C)cc1 (stereo unspecified),inactive: -3.37%
5,COc1cccc(C(=O)NCc2cn3cccc(C)c3n2)c1,inactive: 0.0506%
6,Cn1c(=O)n(C)c2cc(CNCc3ccccc3Cl)ccc21,inactive: -6.44%
7,Cc1ccc2scc(N3CCCC(C)C3)c(=O)c2c1 (stereo unspecified),inactive: 1.03%
8,CCCn1c(=N)c(C(=O)NC(C)c2ccccc2)cc2c(=O)n3ccccc3nc21 (stereo unspecified),inactive: 0.344%
9,O=C(c1ccc(Cl)cc1)n1nc(-c2ccccc2)nc1NCc1ccco1,inactive: -8.96%
10,CCOc1ccc(S(=O)(=O)Nc2cc3c(C(=O)OCc4ccccc4)c(C)oc3c3ccccc23)cc1,inactive: -10.9%
11,CC(C)c1ccc(NC(=O)CSC2=Nc3ccccc3C3=NC(CCC(=O)NCc4cccs4)C(=O)N23)cc1 (stereo unspecified),inactive: -5.72%
12,COc1ccc2c(c1)c1c(c(=O)n(-c3cc(Cl)ccc3C)c(=O)n1Cc1ccc(F)cc1)n2C,inactive: -13.7%
13,Cc1ccc(NC(=O)N2CCN3CCCCC3C2)cc1C (stereo unspecified),inactive: -0.756%
14,Cc1c(Cl)cccc1-n1ncc(C(=O)NC2CCCC2)c1C1CCN(C(=O)OC(C)(C)C)CC1,inactive: 6.54%
15,CCSc1ncc(Cl)c(C(=O)Nc2cc(C)ccc2C)n1,inactive: 5.83%
16,COc1ccccc1C(=O)OCc1cc(=O)n2c(C)csc2n1,inactive: 0.623%
17,CCCOC(=O)c1c(-c2ccccc2)c(-c2ccccc2)nn(C)c1=O,inactive: -2.13%
18,CC(=O)c1c(C)n(-c2cccc(Cl)c2)c2ccc(OC(=O)c3ccccc3)cc12,inactive: 1.38%
19,COc1ccc(-c2[nH]c(-c3ccc(C)cc3)nc2SCC(=O)NCC2CCCO2)cc1 (stereo unspecified),inactive: -20.6%

# From PubChem BioAssay AID493208 (National Center for Advancing Translational Sciences (NCATS), 2011)
